# From the supplement of paper PMC8728848
# The list shows a part of the results.
# B1: PX15618B-bfa-464-25-464 (Bacteroides fragilis) (protein)
# chain: DQEPPLYVNENDIFTSPTRIEATLNGLYAAIKNTGTKSLMGGKSYLVFDNRGDDVINISNNLVTLFNTYNMNVGITDAENADTWTYAYLAINKVNTFLQSLEGAREVAGENYDRYVQEAKFVRALAYYYLNNLYPTPYSVNPDAKSVPLRLTAEAGTENNNMPRSTVKQIYEHILSDLENISALDTEVNTYTGVTHATQAAANMLKMRVYMAMNEWDKAITAGELVTGYSLPEDVTLIYKAPYFSQESIFSLPMADTNIPNTQQSLAEYYYDGKIMLIDTKSGIMSKPDYSLATDKRIIAFKGEKDLLMKFTDAKTKLQWVPIFRYAETLLDLAECYANKAGGEATAKSLLKQVRGRSVDAATDPLNIDNLSGDALKEAIYNEKRLEFIGEGIRGIDIMRRGEHFIKVGENETINVGPSDEKYTWPIPQVELLLNKDINK
# Assays:
# Assay in all cases: glycan array binding signal (z-score within array); higher = stronger binding
# Conditions in all cases: glycan notation: IUPAC condensed, linker removed
# [1] = biological target: Fuc(a1-2)[Gal(a1-3)]Gal(b1-4)GlcNAc(b1-2)Man(a1-3)[Fuc(a1-2)[Gal(a1-3)]Gal(b1-4)GlcNAc(b1-2)Man(a1-6)]Man(b1-4)GlcNAc(b1-4)[Fuc(a1-6)]GlcNAc
# Summary of the method: (§1)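 Glycan array data came from 3228 arrays in the Consortium for Functional Glycomics database, and only arrays with an available protein sequence were kept. Glycan names were put into IUPAC-condensed notation, and columns mapping to the same glycan were averaged. The binding signal is a within-array Z-score, averaged across arrays of one protein sequence run at different concentrations or buffers and across linkers. A negative Z-score can be read as non-binding.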
# [2] = biological target: Fuc(a1-2)[Gal(a1-3)]Gal(b1-4)GlcNAc(b1-3)GalNAc
# Summary of the method: as §1
# [3] = biological target: Fuc(a1-2)[Gal(a1-3)]Gal(b1-4)GlcNAc(b1-3)[Fuc(a1-2)[Gal(a1-3)]Gal(b1-4)GlcNAc(b1-6)]GalNAc
# Summary of the method: as §1
# [4] = biological target: Fuc(a1-2)[Gal(a1-3)]Gal(b1-4)GlcNAc(b1-6)GalNAc
# Summary of the method: as §1
# [5] = biological target: Fuc(a1-2)[Gal(a1-3)]Gal(b1-4)[Fuc(a1-3)]Glc
# Summary of the method: as §1
# [6] = biological target: Fuc(a1-2)[Gal(a1-3)]Gal(b1-4)[Fuc(a1-3)]GlcNAc
# Summary of the method: as §1
# [7] = biological target: Fuc(a1-2)[Gal(a1-3)]Gal(b1-4)[Fuc(a1-3)]GlcNAc(b1-3)GalNAc
# Summary of the method: as §1
# [8] = biological target: Fuc(a1-2)[Gal(a1-4)]Gal(b1-4)GlcNAc
# Summary of the method: as §1
# [9] = biological target: Fuc(a1-2)[GalNAc(a1-3)]Gal
# Summary of the method: as §1
# [10] = biological target: Fuc(a1-2)[GalNAc(a1-3)]Gal(b1-3)GalNAc(a1-3)[Fuc(a1-2)]Gal(b1-4)GlcNAc
# Summary of the method: as §1
# [11] = biological target: Fuc(a1-2)[GalNAc(a1-3)]Gal(b1-3)GalNAc(b1-3)Gal(a1-4)Gal(b1-4)Glc
# Summary of the method: as §1
# [12] = biological target: Fuc(a1-2)[GalNAc(a1-3)]Gal(b1-3)GlcNAc
# Summary of the method: as §1
# [13] = biological target: Fuc(a1-2)[GalNAc(a1-3)]Gal(b1-3)GlcNAc(b1-2)Man(a1-3)[Fuc(a1-2)[GalNAc(a1-3)]Gal(b1-3)GlcNAc(b1-2)Man(a1-6)]Man(b1-4)GlcNAc(b1-4)GlcNAc
# Summary of the method: as §1
# [14] = biological target: Fuc(a1-2)[GalNAc(a1-3)]Gal(b1-3)GlcNAc(b1-2)Man(a1-3)[Fuc(a1-2)[GalNAc(a1-3)]Gal(b1-3)GlcNAc(b1-2)Man(a1-6)]Man(b1-4)GlcNAc(b1-4)[Fuc(a1-6)]GlcNAc
# Summary of the method: as §1
# [15] = biological target: Fuc(a1-2)[GalNAc(a1-3)]Gal(b1-3)GlcNAc(b1-3)GalNAc
# Summary of the method: as §1
# [16] = biological target: Fuc(a1-2)[GalNAc(a1-3)]Gal(b1-3)GlcNAc(b1-6)GalNAc
# Summary of the method: as §1
# [17] = biological target: Fuc(a1-2)[GalNAc(a1-3)]Gal(b1-4)Glc
# Summary of the method: as §1
# [18] = biological target: Fuc(a1-2)[GalNAc(a1-3)]Gal(b1-4)GlcNAc
# Summary of the method: as §1
# [19] = biological target: Fuc(a1-2)[GalNAc(a1-3)]Gal(b1-4)GlcNAc(b1-2)Man
# Summary of the method: as §1
# [20] = biological target: Fuc(a1-2)[GalNAc(a1-3)]Gal(b1-4)GlcNAc(b1-2)Man(a1-3)[Fuc(a1-2)[GalNAc(a1-3)]Gal(b1-4)GlcNAc(b1-2)Man(a1-6)]Man(b1-4)GlcNAc(b1-4)GlcNAc
# Summary of the method: as §1
# [21] = biological target: Fuc(a1-2)[GalNAc(a1-3)]Gal(b1-4)GlcNAc(b1-2)Man(a1-3)[Fuc(a1-2)[GalNAc(a1-3)]Gal(b1-4)GlcNAc(b1-2)Man(a1-6)]Man(b1-4)GlcNAc(b1-4)[Fuc(a1-6)]GlcNAc
# Summary of the method: as §1
# [22] = biological target: Fuc(a1-2)[GalNAc(a1-3)]Gal(b1-4)GlcNAc(b1-3)Gal(b1-4)GlcNAc
# Summary of the method: as §1
# [23] = biological target: Fuc(a1-2)[GalNAc(a1-3)]Gal(b1-4)GlcNAc(b1-3)Gal(b1-4)GlcNAc(b1-3)Gal(b1-4)GlcNAc
# Summary of the method: as §1
# [24] = biological target: Fuc(a1-2)[GalNAc(a1-3)]Gal(b1-4)GlcNAc(b1-3)GalNAc
# Summary of the method: as §1
# [25] = biological target: Fuc(a1-2)[GalNAc(a1-3)]Gal(b1-4)GlcNAc(b1-3)[Fuc(a1-2)[GalNAc(a1-3)]Gal(b1-4)GlcNAc(b1-6)]GalNAc
# Summary of the method: as §1
# [26] = biological target: Fuc(a1-2)[GalNAc(a1-3)]Gal(b1-4)GlcNAc(b1-6)GalNAc
# Summary of the method: as §1
# [27] = biological target: Fuc(a1-2)[GalNAc(a1-3)]Gal(b1-4)[Fuc(a1-3)]GlcNAc
# Summary of the method: as §1
# [28] = biological target: Fuc(a1-2)[GalNAc(a1-3)]Gal(b1-4)[Fuc(a1-3)]GlcNAc(b1-3)GalNAc
# Summary of the method: as §1
# [29] = biological target: Fuc(a1-2)[GalNAc(a1-4)]Gal(b1-4)GlcNAc
# Summary of the method: as §1
# [30] = biological target: Fuc(a1-2)[GalNAc(b1-3)]Gal
# Summary of the method: as §1
binder,measurement,setting,value
B1,glycan array binding signal (z-score),[1],-0.101
same,glycan array binding signal (z-score),[2],0.508
same,glycan array binding signal (z-score),[3],0.083
same,glycan array binding signal (z-score),[4],-0.501
same,glycan array binding signal (z-score),[5],-0.728
same,glycan array binding signal (z-score),[6],-0.477
same,glycan array binding signal (z-score),[7],-0.444
same,glycan array binding signal (z-score),[8],0.326
same,glycan array binding signal (z-score),[9],-0.445
same,glycan array binding signal (z-score),[10],-0.018
same,glycan array binding signal (z-score),[11],-0.556
same,glycan array binding signal (z-score),[12],-0.308
same,glycan array binding signal (z-score),[13],0.241
same,glycan array binding signal (z-score),[14],0.028
same,glycan array binding signal (z-score),[15],0.481
same,glycan array binding signal (z-score),[16],-0.381
same,glycan array binding signal (z-score),[17],-0.313
same,glycan array binding signal (z-score),[18],-0.278
same,glycan array binding signal (z-score),[19],0.377
same,glycan array binding signal (z-score),[20],0.35
same,glycan array binding signal (z-score),[21],0.319
same,glycan array binding signal (z-score),[22],-0.113
same,glycan array binding signal (z-score),[23],-0.142
same,glycan array binding signal (z-score),[24],0.082
same,glycan array binding signal (z-score),[25],-0.678
same,glycan array binding signal (z-score),[26],-0.477
same,glycan array binding signal (z-score),[27],0.784
same,glycan array binding signal (z-score),[28],0.311
same,glycan array binding signal (z-score),[29],-0.57
same,glycan array binding signal (z-score),[30],-0.115
